Results: PubChem BioAssay AID652025 (National Center for Advancing Translational Sciences (NCATS), 2013)
In all, about 360,000 compounds went through this assay and about 240 (0.067%) were called active. This list was built around the results that the source calls inconclusive (neither active nor inactive); the mix of calls is not that of the screen. Cut-off read from the data, not from the text of the source: active = activation above about 50%; inconclusive = mostly about 30% to 49%; inactive = weaker than that.

Assay: qHTS of IL-2 Activators; note: 0% is about no effect
Details: IL-2 activation reporter assay, cell-based qHTS; stronger effect = higher value; in transgenic mouse T cells; stimulated with anti-CD3/CD4/CD28 beads
Summary of the method: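 Screening format: compound pinned onto unstimulated transgenic mouse T cells, 60 min incubation, then anti-CD3/anti-CD4/anti-CD28 bead stimulation for 18 hours at 37 degrees C, followed by EGFP and DsRed detection.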

Q: Which activation does the source give for `COc1ccc(C(=O)NCCN2CCN(C(=O)c3ccc(OC)c(OC)c3)CC2)cc1OC` here?
A: inactive: 1.18%

Q: With `Cc1ccc(C(=O)NCCn2c(N)c(C#N)c3nc4ccccc4nc32)cc1` as the compound, how does the activation read?
A: active: 53.8%

Q: With `O=C(CCl)N=c1sccn1Cc1ccccc1Cl` as the compound, how does the activation read?
A: inactive: -4.85%

Q: For `N#C/C(=C/c1ccc(N2CCCCC2)o1)C(=O)Nc1ccc(Cl)cc1`, which activation is on record?
A: inconclusive: 37.3%

Q: For `O=C(Nc1cccc2ncccc12)c1ccccc1[N+](=O)[O-]`, which activation is on record?
A: inconclusive: 35.6%

Q: Which activation does the source give for `O=C(NCc1ccc(F)cc1)N1CCN(S(=O)(=O)c2ccccc2F)CC1` here?
A: inactive: 3.58%

Q: Which activation does the source give for `COc1ccc(N=Cc2c(O)n(-c3cccc(C)n3)c(=O)c3ccccc23)c(OC)c1` here?
A: inconclusive: 39.4%

Q: Which activation does the source give for `COc1ccc(N/C=C/C(=O)c2ccc(Cl)cc2)cc1` here?
A: inconclusive: 30.8%

Q: With `COc1ccccc1S(=O)(=O)Cc1ccc(C(=O)NC2CC2)o1` as the compound, how does the activation read?
A: inactive: -0.936%

Q: Which activation does the source give for `N=c1c(S(=O)(=O)c2ccc(Cl)cc2)cc2c(=O)n3ccccc3nc2n1Cc1ccco1` here?
A: inconclusive: 34.3%

Q: Which activation does the source give for `Cc1ccc2nc(N3CCN(S(=O)(=O)c4ccc(C)c(Cl)c4)CC3)c(C#N)cc2c1` here?
A: inconclusive: 35.3%

Q: With `CC1CCN(C(=O)CN(c2ccc(Cl)c(C(F)(F)F)c2)S(C)(=O)=O)CC1` as the compound, how does the activation read?
A: inactive: -0.926%

Q: Which activation does the source give for `NC(=O)c1ccc(NC(=O)CCN=C2NS(=O)(=O)c3ccccc32)cc1` here?
A: inconclusive: 35%

Q: For `O=[N+]([O-])c1ccc(NN=Cc2cccc3ccccc23)nc1`, which activation is on record?
A: active: 58.5%

Q: With `COC(=O)C1=C(C)N(c2ccc(C)c(C)c2)/C(=C/c2ccco2)C1=O` as the compound, how does the activation read?
A: active: 71.3%

Q: For `NC(=O)CC(NC(=O)c1ccc(Br)cc1)c1ccc(N2CCC(Cc3ccccc3)CC2)c([N+](=O)[O-])c1` (stereo unspecified), which activation is on record?
A: inactive: -2.78%

Q: With `Cn1cc(/C=C(\C#N)C(=O)Nc2ccccc2O)c2ccccc21` as the compound, how does the activation read?
A: inconclusive: 32%

Q: Which activation does the source give for `CCOC1=C/C(=C/c2c(N)n3nc(CC(=O)N4CCCC4)sc3nc2=O)C=CC1=O` here?
A: inconclusive: 33.9%

Q: For `CN=C1S/C(=C\c2ccc(N3CCOCC3)c(F)c2)C(=O)N1C`, which activation is on record?
A: inconclusive: 30.1%

Q: With `CCCCN1C(=O)/C(=C2/Sc3ccc(OC)cc3N2CC)SC1=S` as the compound, how does the activation read?
A: active: 118%

Q: Which activation does the source give for `COCCN(C(=O)COC(=O)c1cc2c(s1)CCC2)c1c(N)n(Cc2ccccc2)c(=O)[nH]c1=O` here?
A: inactive: 1.21%

Q: Which activation does the source give for `O=C(Nc1ccccc1-c1nc2ccccc2[nH]1)c1ccc(N2C(=O)CCC2=O)cc1` here?
A: active: 111%

Q: With `COC(=O)N/N=C/c1c(C)c(C(=O)c2ccc(F)cc2)n2ccccc12` as the compound, how does the activation read?
A: inconclusive: 45.4%

Q: Which activation does the source give for `CCCCN1/C(=C/c2ccc3ccccc3[n+]2CC)Sc2ccccc21` here?
A: inconclusive: 33%

Q: With `Nc1nc(SCC(=O)Nc2cccc(F)c2)n[nH]1` as the compound, how does the activation read?
A: inconclusive: 34.6%

Q: For `COC(=O)c1c(NC(=O)c2ccc(S(=O)(=O)N3CC(C)OC(C)C3)cc2)sc2c1CCN(C)C2` (stereo unspecified), which activation is on record?
A: inconclusive: 46.8%

Q: With `O=C(Nn1c(O)c(C=C2N=c3ccccc3=N2)sc1=S)c1ccccc1Cl` as the compound, how does the activation read?
A: inconclusive: 43.6%

Q: With `COCCNC(=S)N/N=C/c1ccc(-c2ccc([N+](=O)[O-])cc2)o1` as the compound, how does the activation read?
A: inconclusive: 41.8%

Q: Which activation does the source give for `COc1ccc(N=Cc2sc(O)c3ccccc23)cc1` here?
A: inconclusive: 42.5%

Q: Which activation does the source give for `C=CCN1C(=O)/C(=C/c2ccc(O)cc2)S/C1=N/c1nccs1` here?
A: inconclusive: 39.2%

Q: With `COc1cc2oc(=O)cc(-c3ccc(-c4ccc(N(C)C)cc4)cc3)c2c(OC)c1OC` as the compound, how does the activation read?
A: inconclusive: 35.7%

Q: For `CCN1C(=O)[C@@H]2Cc3c([nH]c4ccccc34)C(c3cc(OC)c(OC)c(OC)c3)N2C1=S` (stereo partly specified), which activation is on record?
A: active: 93.7%

Q: Which activation does the source give for `CC/C(=N/Nc1cccc(C)c1)c1cnnc(SC)n1` here?
A: active: 190%

Q: Which activation does the source give for `C=CCNC(=O)C(C#N)c1nc2ccccc2nc1N1CCN(Cc2ccccc2)CC1` (stereo unspecified) here?
A: active: 66.5%

Q: Which activation does the source give for `Cc1c(/C=N/NC(N)=O)c2ccccn2c1C(=O)c1ccc(F)cc1` here?
A: inconclusive: 42.7%

Q: Which activation does the source give for `O=C(O)CCNc1ccc(NCCC(=O)O)c2c1C(=O)c1ccccc1C2=O` here?
A: inactive: -1.5%

Q: With `O=C(Nc1ccccc1)N1CCN(c2ccc(C(F)(F)F)cn2)CC1` as the compound, how does the activation read?
A: inactive: -0.757%

Q: With `CC(C)CNC(=O)c1noc2c1CCCC2` as the compound, how does the activation read?
A: inconclusive: 35.6%

Q: Which activation does the source give for `O=C(NCc1ccccc1C(F)(F)F)c1cccc2c1C(=O)c1ccc(N3CCCCC3)cc1S2(=O)=O` here?
A: inconclusive: 43.7%

Q: With `CC(C)Cc1nc(N2CCN(C(=O)c3ccccc3)CC2)c(C#N)c2c1CCC2` as the compound, how does the activation read?
A: inactive: -2.06%

Q: Which activation does the source give for `Nc1c(C(=O)Nc2ccccc2F)sc2nc(Cc3ccccc3)cc(C(F)(F)F)c12` here?
A: active: 51.1%

Q: For `COc1ccccc1NCC(=O)N/N=C/c1c(O)ccc2ccccc12`, which activation is on record?
A: inconclusive: 45%

Q: For `Cc1coc(NC(=O)CSc2nc(-c3ccncc3)cc(C(F)(F)F)c2C#N)n1`, which activation is on record?
A: inconclusive: 34.9%

Q: For `O=C(c1ccccc1-c1nc(-c2ccccc2)no1)N1CCOCC1`, which activation is on record?
A: inconclusive: 33.9%

Q: For `O=C(COC(=O)C1(c2ccccc2F)CCCC1)NCc1ccc2c(c1)OCO2`, which activation is on record?
A: active: 64.7%

Q: For `CCCc1ccc(C2C3=C(CC(C)(C)CC3=O)NC3=C2C(=O)c2ccccc23)cc1` (stereo unspecified), which activation is on record?
A: inconclusive: 44.6%

Q: For `N#C/C(=C/c1ccc(-c2ccc(S(N)(=O)=O)cc2)o1)C(=O)Nc1ccccc1`, which activation is on record?
A: inconclusive: 40.1%

Q: For `COc1ccc2cc(CCNC(=O)C(C)(C)C)c(=O)[nH]c2c1`, which activation is on record?
A: inactive: 1.04%

Q: With `COc1ccccc1-c1cc(C(F)(F)F)nc(S(=O)(=O)CCCC(=O)Nc2cccnc2Cl)n1` as the compound, how does the activation read?
A: inactive: -4.72%

Q: Which activation does the source give for `Cc1cc(/C=C2\SC(=S)N(Cc3ccco3)C2=O)c(C)n1-c1cccnc1` here?
A: inconclusive: 45.9%

Q: For `COc1ccc(OC)c(/C=C2/Sc3ccccc3C2=O)c1`, which activation is on record?
A: inconclusive: 41.4%

Q: With `CCOc1ccc2c(c1)S/C(=C\c1cccs1)C(=O)N2` as the compound, how does the activation read?
A: active: 60.2%

Q: For `CCc1cc(C(=O)OC)c(NC(=O)CC2Nc3cc(C)c(C)cc3NC2=O)s1` (stereo unspecified), which activation is on record?
A: inconclusive: 38.2%

Q: Which activation does the source give for `CN(C)c1ccc(/C=N/N(CCC#N)C2=NS(=O)(=O)c3ccccc32)cc1` here?
A: inconclusive: 42.9%

Q: Which activation does the source give for `COC(=O)C1=C(C)N(Cc2ccco2)C(=O)/C1=C\c1ccc(N(C)C)cc1` here?
A: inconclusive: 37.5%

Q: For `C[N+]1=C2CCCCCN2C(O)(c2ccccc2)C1` (stereo unspecified), which activation is on record?
A: inactive: 1.5%

Q: With `CN(c1nc2ccccc2[nH]c1=O)C1CCCCC1` as the compound, how does the activation read?
A: inconclusive: 45.1%

Q: With `Cc1ccc(NC(=O)CSc2ccc3nnc(-c4cccnc4)n3n2)cc1` as the compound, how does the activation read?
A: inactive: -1.18%

Q: Which activation does the source give for `O=C1c2cccc3c(N4CCCCC4)ccc(c23)C(=O)N1c1cccc(O)c1` here?
A: inconclusive: 33.6%

Q: Which activation does the source give for `O=C(Nc1ccc([N+](=O)[O-])cc1)C(Cc1ccccc1)N1C(=O)c2cccc3cccc(c23)C1=O` (stereo unspecified) here?
A: active: 160%

Q: For `CCCc1cc(=O)oc2cc(C)cc(OCC(=O)NC3CCN(Cc4ccccc4)CC3)c12`, which activation is on record?
A: inconclusive: 42%

Q: Which activation does the source give for `COc1cccc2sc(Nc3nnc(-c4ccc(F)cc4)o3)nc12` here?
A: inactive: -3.24%

Q: For `CCOc1ccc(/C=C/C(=O)Nc2ccc(OC)cc2[N+](=O)[O-])cc1`, which activation is on record?
A: active: 114%

Q: Which activation does the source give for `COc1ccc(Cn2cc3c(-c4ccc(F)cc4)nnc-3c3cc(OC)c(OC)cc32)cc1` here?
A: inconclusive: 33.8%

Q: For `CC1=CC2=NC(=O)/C(=C\c3ccc(-c4cccc(Cl)c4)o3)C(=N)N2O1`, which activation is on record?
A: inconclusive: 34.9%

Q: With `N#CCCn1cc(/C=C(\C#N)c2nc3ccccc3s2)c(-c2ccc(F)cc2)n1` as the compound, how does the activation read?
A: inconclusive: 46%

Q: Which activation does the source give for `Oc1ccc2oc3c(c2c1/C=N/n1cnnc1)CCCC3` here?
A: inconclusive: 42.8%

Q: For `N#C/C(=C/c1ccc(-c2ccc(S(N)(=O)=O)cc2)o1)c1nc2ccccc2s1`, which activation is on record?
A: active: 71.1%

Q: Which activation does the source give for `Cn1cc(/C=C/c2cc[n+](C)cc2)c2cc(Cl)ccc21` here?
A: active: 104%

Q: With `COc1ccc(CCNC(=O)Cn2nc(C)c3c(C)n(-c4ccccc4)nc3c2=O)c(OC)c1` as the compound, how does the activation read?
A: inactive: -1.59%

Q: For `O=S(=O)(c1cccc(Cl)c1)N1CCCC1`, which activation is on record?
A: inconclusive: 36.3%

Q: Which activation does the source give for `Cc1ccc2c(c1)c1nc3ccccc3nc1n2C` here?
A: inconclusive: 30.9%

Q: Which activation does the source give for `Clc1ccccc1C1CC(c2ccccc2)=Nc2ccccc2N1` (stereo unspecified) here?
A: active: 76.6%

Q: Which activation does the source give for `COc1ccc(/C=C2\SC(=S)N(CCCC(=O)NC3CCCC3)C2=O)cc1OC` here?
A: inconclusive: 31.8%

Q: For `c1ccc(Cn2nnnc2C(c2ccncc2)N2CCOCC2)cc1` (stereo unspecified), which activation is on record?
A: inactive: -1.08%

Q: Which activation does the source give for `Cc1ccc(S(=O)(=O)NCC(=O)OCC(=O)Nc2ncc(Cl)cc2Cl)cc1` here?
A: inconclusive: 32.7%

Q: Which activation does the source give for `C=CCN1C(=O)/C(=C2/Sc3ccc(OC)cc3N2CC)SC1=S` here?
A: active: 189%

Q: For `CCCc1cc(-n2ccnc2)n2c(nc3ccccc32)c1C#N`, which activation is on record?
A: inconclusive: 39.1%

Q: With `O=C(N/N=C/c1ccccc1Cl)c1[nH]c2ccc(Br)cc2c1-c1ccccc1` as the compound, how does the activation read?
A: inconclusive: 40.2%

Q: Which activation does the source give for `CCN1CCc2c(sc(NC(=O)c3ccc(S(=O)(=O)N(CC)c4ccccc4)cc3)c2C(N)=O)C1` here?
A: inconclusive: 39%

Q: Which activation does the source give for `CCOC(=O)N1CCC(Nc2cc(C)nc3c(-c4ccccc4OC)c(C)nn23)CC1` here?
A: inactive: -1.71%

Q: Which activation does the source give for `Oc1ccc2ccccc2c1/C=N/Nc1nnc(-c2ncc[nH]2)c2ccccc12` here?
A: active: 55.8%

Q: For `CCOC(=O)Cn1c2ccc(OC)cc2c2nc3ccccc3nc21`, which activation is on record?
A: active: 51.1%

Q: With `COc1ccc(CCn2c(=N)c(S(=O)(=O)c3ccc(Cl)cc3)cc3c(=O)n4ccccc4nc32)cc1` as the compound, how does the activation read?
A: active: 80.5%

Q: With `Cc1nc2ccccc2n1-c1nc(-c2ccco2)cc(C(F)(F)F)n1` as the compound, how does the activation read?
A: inactive: -1.54%

Q: Which activation does the source give for `Cc1cc(C)cc(N=Cc2[nH]c3ccc(Br)c(Cl)c3c2O)c1` here?
A: active: 54.5%
